Results: the RNAGym collection of RNA variant scans (doi:10.7554/elife.90254)
Read counts are not given, so values of variants with three or more changes are uncertain.

B1: LINE1-mini (parent)
chain: GGCAGAGCUCAACACAGCGUGGCAAAGUGGCUGUGGCUAGACUGCC

Variants of: B1
Assay: self-cleavage, relative activity (ratio to wild type); higher = more cleavage; in vitro, sequencing; the parent is a self-cleaving ribozyme

Variant | self-cleavage
G2C C8U C15U | 0.36
U28C G33C C46G | 0.02
G17U A26C A39U | 0.31
G2U U9C U38A | 0
G5A A6U C18U G19A | 0.05
A16G G17U C23G G33A | 0.01
G2A A11U A16C | 0.06
G2C G19U G21U G35C C42U | 0.07
C3A G5A A16U G21C | 0.08
G21U G33C C46A | 0.06
G5U C10U U20A C31A | 0.03
G22U A24G G40C | 0.05
C10A A16G A41C | 0
A14C C15A U32C | 0.03
A6C U9C G21U | 0.02
C8G C15U G21U | 0.05
G33A G40U C45A | 0.01
G7U C13A A14G | 0.08
A4G C10G G17A G19A A25U A26U U32A U34G A39U | 0
C31A U32A C37A | 0.08
C8U U28G G44U | 0.41
A26C U28A G29C G35C | 0.04
A6C C15U G17C G21U C23A | 0.1
G17A C18G A39U | 0.02

Variant | self-cleavage
C10A G19U G22U G36C C37U | 0.03
G27A A41C C42U | 0.06
G5A A6C C8U | 0.06
G17C G40C C46U | 0.02
G19A A39C A41U | 1.21
C10G G22C G30A | 0.07
G7U C10U A24G G30U C37G | 0.02
A11G C18U C31U C45U | 0.03
G1A G5C C8U G17U | 0.16
C10A C15A G30A | 0.01
A24G G27C G29C | 0.11
G2C A14C C18G | 0.03
C3U A6G C8G | 0.02
G5A U28A C42G | 0.02
G1A U28A G35A C45A | 0.19
C15G U20A C45A | 0.01
G21U G40C G44U | 0.02
G5C A11C G17A G44U | 0.01
G2C C18G G33U U38C | 0.01
U9C A14U A26G C46A | 0.02
A12G G29U C37U U38G | 0.01
G35C U43G G44C | 0.03
G5A A6G C10A C42U | 0.03
U9C C10A C15U A26G A39U | 0.01

Variant | self-cleavage
A6G G30A U34C | 0.01
A4U A16C G19U C46U | 0.05
G7U G22A G35U A41C | 0.12
A24U G44U C46U | 0.07
C3U C10G G27A | 0.07
U9C G17A G21U | 0.01
C3A G27A C45U | 0.61
A12U C15A U34C | 0.12
G19A C23A A25G C45A | 1.26
A4C G35C A39U | 0.09
A16U A25G G33A | 0.06
G17U G27A G30A U34C C37U | 0.13
A11C G30A G35C | 0.06
G1A G2U C37G | 0
C8U A11C A12U | 0.01
G2U A16U C37U C42A C45G | 0.07
C13G A25C U38C | 0.01
G17A G33C G35C | 0.01
G1C A14G A41C | 0.03
A14C C18A G19U G22C G30A C31G G36U | 0.07
A6G C15U A16U G29U G40U | 0.02
G2U A11C C15U | 0.02
G5C A16G G17U G19A U20C | 0.04
G2A G5A A11C | 0.11

Variant | self-cleavage
A26U G30A C31G C45A | 0.05
A6U C31G G33A | 0.07
A4U A11C C13U A26U U34A C46G | 0.02
C10A G35A G40C C46A | 0.07
G17U G35C G40U | 0.36
C15G G22A C23A | 0.06
A11G A25C G36U C45U | 0.01
C23U G30U A39G G44A | 0.03
G5C C23U U34A C37A | 0.09
C3A G19U A24G A39U | 0.18
A14C U20C G22C U32C | 0.09
G7A U20G C37A A39G G40U | 0.14
U20A C23U A26G G29U | 0.88
C8A U9C C10G C31U G35A | 0.02
C3U C18U C42G | 0.04
C3U C8G A14C C31A | 0.09
G2U A6C A14U A25C | 0.01
C10U G27A U28A G29A A39G C42U | 0.06
A6C C15U G22U G44A | 0.31
G22A A24C A41G | 0.4
A4C G30C G35A | 0.05
G5A C15A C37A | 0.03
A4G C13G U32A | 0.12
A6U C8A C13G G30C | 0.35

Variant | self-cleavage
G2A A6U C13U G19C | 0.08
C3A U28A G30U C31G U32C | 0.29
G5U C15G A26G | 0.05
A4C G17C C37A | 0.11
A6G G7A G21U G35U G36A | 0.39
G7U U9A G21A G35U | 0.09
U9C C18A U28C G30A C31G U32A | 0.02
A25C G27A U28A U32C | 0.27
A11C A12G C15A A24C U32G | 0.02
A14C U20C G21C C37U C45A C46U | 0
C3A G40C C42A | 0.07
G7C C13U G35U C45G | 0.07
G19U G29U A41U | 0.15
C8A A11C C13U | 0.02
A6G C13A G30U G33U | 0.04
A25U A26G G33A G44U | 0.03
G1A U9C A14U C31U | 0.07
G1A A25U A26G G44C | 0.06
G2U G19U C23U A39C | 0.01
C8G G27U G33C | 0.02
G7U A14U C18G G19A | 0.05
A6U C23U U28A C37G | 0.01
C3U A6U C10A A39U | 0.02
C8G G17U G44U | 0.02

Variant | self-cleavage
C23G A25C C45U | 0.18
G5C U32C U34A | 0
A26U U38A A41U | 0.09
G22C A24U A39U C42U | 0.33
U9A C13G G22C G27U U38A A39U | 0.05
G7U C13A U28G | 0.02
G2A C13U G17C C18G G35U | 0.37
C15G C23A C42U | 0.02
C10U C13G C42U C46G | 0.04
G36C U43A C46A | 0.03
A12G A25U C31A G36A U38G A41C | 0
C3G G5C A14C G19A C23G U38C | 0.02
G30C A39C U43A | 0.4
G1A A6G C8U A12G G30U C42A | 0.26
A4G C8G C13U C37G | 0
G7C G17A G30U | 0.01
G17A G22U C23G | 0.29
G21C C31G G36U | 0.09
G5U C10A G27U U34C | 0.01
G5U C13U G29A C31G | 0.02
U20A A24C A41U | 0.23
C8A C42U C45A C46A | 0.06
C3U G17C U34G | 0.02
G7C C10U C23G U34G | 0.04

Variant | self-cleavage
G2U C3U A16G G17U C45U | 0.11
G1U C3A G5U G7C C15G | 0.28
A6G G7C C15G G30A | 0.03
A6C A26C U28A C46A | 0.11
C3G A14G U32A C37U | 0.05
C10A C31G G40A A41U U43C G44U | 0
G5A A24C C45A | 0.05
G1A C10U G30U U34G C45U | 0.09
G2A C3A A12C G17U | 0.05
G7C A11U A25U G27U | 0.02
G7C A14C C31U | 0.03
A4C C10A G30C G40U | 0
G35C A41G C46A | 0.07
A4U G7U A14C | 0
A14U G21A G30U | 0.1
C3U G27C G44U | 0.15
G2A C23A U32C G35C | 0.06
C3U C13A C23U A24C | 0.28
G1U G22U C23U | 0.73
G1C A26U G27U | 0.02
G17C G22U A41G | 0.11
G5A A14C C18A C23U | 0.16
C3G U9A A16U G29U C37U | 0.06
